# Measured values published in PubChem BioAssay AID686979 (National Center for Advancing Translational Sciences (NCATS), 2013).
# Values joined by “and” are separate entries in the source; they are usually repeats but may differ in a detail not shown here. Identical values can stand only once. The whole screen tested about 420,000 compounds, of which about 50,000 (12%) were called active. The inconclusive results got no clear call from the source; some entries with a clear call stand among them for comparison. The call rests on the fitted dose curve; in most records, active means well fitted inhibition curve with a large enough effect; inconclusive means small, poorly fitted or top-dose-only effect; inactive means flat fitted curve, though single readings scatter. Where the call is inconclusive, the potency comes from a doubtful curve fit.
# Assay: qHTS for Inhibitors of human tyrosyl-DNA phosphodiesterase 1 (TDP1): qHTS in cells in presence of CPT; further: nearly all actives have a fitted effect of over 55% in size
# Conditions: chicken DT40 Tdp1-/-;hTDP1 cells + 20 nM CPT, ATP luminescence, 48 h; activity change, negative = growth inhibition: at 46.2 µM (top of the series) unless noted
# Summary of the method: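 Cell growth measured by CellTiter-Glo luminescence after a minimum 48 h, 37 C compound exposure with 20 nM CPT in Tdp1-knockout DT40 cells stably expressing hTDP1, seeded 400/well; qHTS titration format.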
# On the % scale 0 is the no-effect control and ±100 the full control effect; potency means the concentration at half of the fitted maximal effect; tags describe the fitted curve by direction and shape.
Compound,"activity change, negative = growth inhibition",Potency
O=S(=O)(c1ccc(F)cc1)N1CCN=C1SCc1cccc(F)c1,inactive: -27.5%,
CCc1nn(CCCC(=O)NCc2ccccc2Br)c(=O)c2cc3occc3n12,,"inconclusive: 16.4 µM [inhibitor, single point] and inconclusive: 20.6 µM [inhibitor, single point]"
COc1cc2c(cc1OC)CC(=O)N(C)CC2,inactive: 0.605%,
Cc1ccc(OC(=O)c2cc(-c3ccc4c(c3)OCCO4)on2)c(C)c1,inactive: -3.41%,
Cc1cccn2c(=O)c3cc(C(=O)NC(C)c4ccccc4)c(=N)n(CCCn4ccnc4)c3nc12 (stereo not given),,"inconclusive: 32.6 µM [inhibitor, single point]"
CCOC(=O)c1c(NC(=O)c2ccccc2)sc2c(O)c(CN(CC)CC)ccc12,,active: 23.1 µM
CCCCOc1ccc(-c2nonc2NC(=O)c2ccco2)cc1,,"inconclusive: 18.4 µM [inhibitor, single point]"
O=C1NC(=NCc2ccccc2)S/C1=C/c1ccc(O)cc1,,"inconclusive: 10.3 µM [inhibitor, partial curve]"
CCCCN(CC)C(=O)c1oc2ccc(S(=O)(=O)N3CCCC3)cc2c1C,,"inconclusive: 29.1 µM [inhibitor, single point]"
Cc1ccc(SCc2c(C(=O)N/N=C/c3ccoc3)nnn2-c2nonc2N)cc1,inactive: -17.9%,
COc1cccc(CC2(CO)CCCN(Cc3cnn(-c4ccccc4)c3)C2)c1 (stereo not given),,"inconclusive: 20.6 µM [inhibitor, single point]"
CCCCCCN1C[C@H](O)[C@@H](n2cc(-c3ccc(F)cc3)nn2)C[C@@H]1c1ccc(Cl)cc1,,"inconclusive: 29.1 µM [inhibitor, single point]"
COc1ccc(N(CC(=O)Nc2ccccc2OC)S(=O)(=O)c2ccc(NC(C)=O)cc2)cc1,,active: 5.17 µM
Cc1cc(-c2ccco2)n2c(nc3ccccc32)c1C#N,,"inconclusive: 29.1 µM [inhibitor, single point]"
Cc1cc(C)cc(NC(=O)c2ccc(NC(=O)c3ccco3)cc2)c1,,active: 20.6 µM
COCCn1c(SCC(=O)c2ccc3c(c2)OCCO3)nnc1C(C)C,inactive: -2.72%,
COc1cc2nc(SCC(=O)NCc3ccco3)n(Cc3ccc(Cl)cc3)c(=O)c2cc1OC,,"inconclusive: 20.6 µM [inhibitor, partial curve, poor fit]"
CCOC1=C2[C@@H](CN(S(=O)(=O)c3ccc(C)cc3)[C@H]2c2ccccc2F)[C@H]2C(=O)N(c3ccccc3)C(=O)[C@H]2C1,,"inconclusive: 29.1 µM [inhibitor, single point]"

Compound,"activity change, negative = growth inhibition",Potency
CC(C)(C)c1ccc(C(=O)N2CCN(C(=O)c3cccs3)CC2)cc1,,"inconclusive: 20.6 µM [inhibitor, single point]"
CCOC(=O)N1CCN(c2cc(C)c([N+](=O)[O-])cc2F)CC1,,active: 20.6 µM
COc1ccc(-n2nnnc2CNC(=O)c2c(-c3ccccc3Cl)noc2C)cc1,inactive: -10.3%,
COc1ccc(-c2ccc(C(=O)NCC3CCOCC3)c3occc23)c(C)c1,,"inconclusive: 29.1 µM [inhibitor, single point]"
OC[C@H](S)CS,,active: 8.91 µM
Cc1cnc2ccc(I)cc2c1/C=C/c1ccc(N(C)C)cc1,,"inconclusive: 3.55 µM [inhibitor, full curve, poor fit]"
C=CCSc1nnc2n(-c3ccccc3OC)c(=O)c3c4c(sc3n12)CCC4,,"inconclusive: 29.1 µM [inhibitor, single point]"
CCN(CC)CCCNC(=O)c1cc2nc3c(c(C(F)(F)F)n2n1)CCc1ccccc1-3,,"inconclusive: 25.9 µM [inhibitor, single point]"
Cc1ccc(CCNC(=O)CN(c2ccc(C)cc2)S(=O)(=O)c2c(C)noc2C)cc1,,"inconclusive: 18.4 µM [inhibitor, single point] and inconclusive: 29.1 µM [inhibitor, single point]"
COc1cc(C(=O)OCC(=O)N(CC(C)C)C2CCS(=O)(=O)C2)ccc1OCC(C)C (stereo not given),inactive: -4.05%,
CC(Oc1ccccc1F)C(=O)NNC(=O)Cc1ccc(S(=O)(=O)N2CCOCC2)s1 (stereo not given),,"inconclusive: 16.4 µM [inhibitor, single point]"
COc1cc(-c2noc(C)c2C#Cc2ccccn2)cc(OC)c1OC,,active: 355 nM and active: 651 nM
Cc1c(Cl)ccc2sc(N3CCN(C(=O)c4ccco4)CC3)nc12,,active: 14.6 µM
O=c1ccn([C@@H]2O[C@H](CNCc3cccn3-c3ccncc3)[C@@H](O)[C@H]2O)c(=O)[nH]1,,"inconclusive: 0.231 µM [inhibitor, full curve, poor fit]"
O=C(NCCC(F)(F)F)c1cccc2c(-c3ccc(F)c(F)c3)coc12,,"inconclusive: 29.1 µM [inhibitor, single point]"
CCN(CCNC(=O)CN1CCN(Cc2ccc(Cl)cc2)C1=O)c1ccccc1,,"inconclusive: 29.1 µM [inhibitor, single point]"
ClCC1CSC(=NC23CC4CC(CC(C4)C2)C3)O1 (stereo not given),,"inconclusive: 29.1 µM [inhibitor, single point]"
